Laboratory results published in PubChem BioAssay AID624202 (National Center for Advancing Translational Sciences (NCATS), 2012).
Out of some 380,000 compounds screened, about 4,000 (1.1%) were called active. The shares of active, inactive and inconclusive entries below differ from those in the screen. Calls follow the shape of the dose curve; as a rule, active = well fitted activation curve with a large enough effect; inconclusive = small, poorly fitted or top-dose-only effect; inactive = no such curve, though single readings can be large or run the other way. Where the call is inconclusive, the potency comes from a doubtful curve fit.
Potency is read from the fitted curve at half-maximal effect; tags tell the direction and shape of the fitted curve.

Assay: qHTS Assay to Identify Small Molecule Activators of BRCA1 Expression; also: nearly all actives have a fitted effect of over 80% in size
Settings: MCF7-BRCA1-FFLuc reporter, luminescence, 48 h; activation: at 46.1 µM (top of the series), scaled: vehicle 0%, 10 µM genistein 100% unless noted
Summary of the method: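 Luminescence from a BRCA1-driven firefly luciferase in MCF7 cells was the read-out, taken 15 min after substrate addition following 48 h compound exposure at 37 °C. Data were normalized to a 10 microM genistein control and DMSO vehicle.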
With Cc1[nH]c2ccccc2c1C1(O)C(=O)N(Cc2ccccc2)c2ccc(Br)cc21 (stereo unspecified) the Potency was “inactive”. For CC(=O)Nc1ccc2nc(-c3ccccc3)cn2c1, the Potency was inconclusive: 0.631 µM [activator, full curve, poor fit]. In the case of CCOc1ccc(OCC)c(NC(=O)CCCN2C(=S)NC(C)(C)CC2C)c1 (stereo unspecified), the Potency is reported as “inactive”. In the case of CC(=O)c1cccc(NC(=O)c2ccc3ccccc3c2)c1, the Potency is reported as inconclusive: 2.82 µM [activator, full curve, poor fit]. In the case of c1ccn2c(SCc3ccc4c(c3)OCO4)nnc2c1, the Potency is reported as inconclusive: 12.6 µM [activator, partial curve, poor fit]. For CCOc1ccc(NC(=O)COc2ccccc2)c([N+](=O)[O-])c1, the Potency was inconclusive: 11.2 µM [activator, partial curve, poor fit]. With O=c1[nH]c(SCc2nc3c(cnn3-c3ccccc3)c(=O)[nH]2)nc2ccccc12 the Potency was inconclusive: 2.51 µM [activator, full curve, poor fit]. With O=[N+]([O-])c1ccc(NN=Cc2ccccc2O)nc1 the Potency was “inactive”. In the case of O=C(N=Nc1c(O)[nH]c2ccccc12)c1cc(-c2cccs2)[nH]n1, the Potency is reported as inconclusive: 10 µM [activator, partial curve, poor fit]. In the case of CCCCSc1nc(C)c(C(C)=O)cc1C#N, the Potency is reported as inconclusive: 8.91 µM [activator, partial curve, poor fit]. With COc1ccc(-c2ccc3[nH]c4c(c3c2)CCN2C[C@@H]([C@H](C)O)[C@@H](N(C)C(=O)Nc3cc(Cl)cc(Cl)c3)C[C@@H]42)cc1 the Potency was “inactive”. In the case of COc1cc(C)ccc1OCc1cc(C(=O)N(Cc2nccn2C)C(C)C)no1, the Potency is reported as inconclusive: 2.51 µM [activator, full curve, poor fit]. With CS(=O)(=O)c1ccccc1C(=O)Nc1nc2ccccc2[nH]1 the Potency was “inactive”. For O=C(Nc1ccc2[nH]ccc2c1)c1cccs1, the Potency was active: 3.16 µM. With COC(=O)C1=C(C)NC(=O)/C1=C\c1cc(C)n(-c2ccccc2)c1C the Potency was active: 7.08 µM. In the case of Cn1ccnc1SCC(=O)Nc1ccc2nc(SCC(=O)NC3CC3)sc2c1, the Potency is reported as active: 3.55 µM. With COc1cc(C#Cc2ccc3cc(CCO)oc(=O)c3c2)cc(OC)c1 the Potency was active: 7.08 µM. In the case of COc1cc2cc3c(N)c(C(=O)NCc4ccco4)sc3nc2cc1OC, the Potency is reported as inconclusive: 31.6 µM [activator, single point]. For Cc1ccc(C(=O)NC(=S)NCC(=O)c2ccccc2)cc1, the Potency was inconclusive: 12.6 µM [activator, partial curve, poor fit]. With Cn1c(=NC(=O)c2ccccc2[N+](=O)[O-])sc2cc(S(C)(=O)=O)ccc21 the Potency was inconclusive: 0.316 µM [activator, full curve, poor fit]. In the case of CCOC(=O)Nc1nc(-c2ccc(F)cc2F)cs1, the Potency is reported as inconclusive: 10 µM [activator, partial curve, poor fit]. In the case of O=C1/C(=C\c2ccc(Br)cc2)SC(=S)N1NS(=O)(=O)c1ccccc1, the Potency is reported as “inactive”. With Cc1ccc(C(=O)COC(=O)CNC(=O)c2ccccc2)s1 the Potency was “inactive”. In the case of CCN(CC)C(=O)CSc1nc2ccccc2o1, the Potency is reported as inconclusive: 15.8 µM [activator, single point]. With O=C(O)c1ccc(N=Nc2c(O)[nH]c3ccc(Br)cc23)cc1 the Potency was active: 5.62 µM. With Cc1ccc(NC(=O)N(C2=NCC(C)S2)c2ccccc2)cc1 (stereo unspecified) the Potency was inconclusive: 22.4 µM [activator, single point]. With O=C(Cc1cccs1)NCc1cccc(Cl)c1 the Potency was active: 12.6 µM. With COc1ccc(CN2C(=O)C(C)Nc3ncnc(N4CCN(c5ccccn5)CC4)c32)cc1 (stereo unspecified) the Potency was “inactive”. In the case of CCOc1ccc(C2C=C(c3ccc(F)cc3)Nc3ncnn32)cc1 (stereo unspecified), the Potency is reported as inconclusive: 10 µM [activator, partial curve, poor fit]. With O=c1c2ccccc2oc2ccc(NCCCn3ccnc3)cc12 the Potency was inconclusive: 1.26 µM [activator, full curve, poor fit]. With CCN(CC)C(=O)[C@H]1C[C@H](CC(=O)NCC23CC4CC(CC(C4)C2)C3)C(=O)N2CCc3c([nH]c4cc(-c5ccco5)ccc34)[C@]12C the Potency was “inactive”. With C=C1CC(Cn2cc(Br)c(=O)[nH]c2=O)(c2ccc(-c3ccccc3)cc2)OC1=O (stereo unspecified) the Potency was “inactive”. With O=C(Nc1ccc(Cl)cc1)Nc1ccccc1CC[N+](=O)[O-] the Potency was “inactive”. For O=C(c1cc(-c2ccc(Cl)c(Cl)c2)on1)N1CCCCCC1, the Potency was inconclusive: 1.78 µM [activator, full curve, poor fit]. For O=C(NCc1cccs1)C1CCN(S(=O)(=O)c2ccccc2F)CC1, the Potency was “inactive”. With CC1CCC(=O)N(CCOc2ccccc2)CC1 (stereo unspecified) the Potency was inconclusive: 11.2 µM [activator, partial curve, poor fit]. In the case of CC(C)Sc1nnc(Nc2ccccc2)s1, the Potency is reported as inconclusive: 6.31 µM [activator, full curve, poor fit]. For COc1ccc(/C=C/C(=O)c2ccccn2)cc1, the Potency was inconclusive: 7.94 µM [activator, partial curve, poor fit]. With Cc1cc(NC(=O)Nc2ccc(C)c(C)c2)no1 the Potency was active: 7.94 µM. With COc1ccccc1N1CCN(/N=C/c2ccc(Cl)c([N+](=O)[O-])c2)CC1 the Potency was inconclusive: 15.8 µM [activator, partial curve, poor fit]. For COc1ccc(-c2nnc(SCc3cccnc3)o2)cc1, the Potency was inconclusive: 11.2 µM [activator, partial curve, poor fit]. With CC1Cc2ccccc2N1C(=O)c1ccc(Br)o1 (stereo unspecified) the Potency was inconclusive: 3.55 µM [activator, full curve, poor fit]. With Cc1cccc2c(N=NC(=O)c3ccc(NS(=O)(=O)c4cccs4)cc3)c(O)[nH]c12 the Potency was inconclusive: 11.2 µM [activator, partial curve, poor fit]. With S=c1nc(-c2ccccn2)c(-c2ccccn2)n[nH]1 the Potency was “inactive”. For Cc1nc(C(=O)Nc2ccccc2)sc1C(=O)Nc1ccccc1, the Potency was active: 2.82 µM. In the case of Cc1nc(-c2ccc(NC(=O)c3ccco3)cc2)cs1, the activation is reported as inconclusive: -84.2% [activator].
